# From the supplement of paper PMC8728848
# Some of the results follow.
# B1: DC-ASGPR Long (Homo sapiens) (protein)
# chain: MTRTYENFQYLENKVKVQGFKNGPLPLQSLLQRLRSGPCHLLLSLGLGLLLLVIICVVGFQNSKFQRDLVTLRTDFSNFTSNTVAEIQALTSQGSSLEETIASLKAEVEGFKQERQAGVSELQEHTTQKAHLGHCPHCPSVCVPVHSEMLLRVQQLVQDLKKLTCQVATLNNNASTEGTCCPVNWVEHQDSCYWFSHSGMSWAEAEKYCQLKNAHLVVINSREEQNFVQKYLGSAYTWMGLSDPEGAWKWVDGTDYATGFQNWKPGQPDDWQGHGLGGGEDCAHFHPDGGWNDDVCQRPYHWVCEAGLGQTSQESH
# Assays:
# Experiment in all cases: glycan array binding signal (z-score within array); higher = stronger binding
# Settings in all cases: glycan notation: IUPAC condensed, linker removed
# [1] = molecular target: Neu5Ac(a2-3)Gal(b1-4)GlcNAc(b1-3)Gal(b1-4)GlcNAc(b1-2)Man(a1-3)[Neu5Ac(a2-3)Gal(b1-4)GlcNAc(b1-3)Gal(b1-4)GlcNAc(b1-2)Man(a1-6)]Man(b1-4)GlcNAc(b1-4)GlcNAc
# In short: (§1)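 Negative Z-scores can be read as non-binding. The Z-score is calculated within each array and then averaged across arrays of one protein sequence at different concentrations or buffers and across linkers. Arrays, 3228 in all, were curated from the Consortium for Functional Glycomics database and kept only where the protein sequence was available.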
# [2] = molecular target: Neu5Ac(a2-3)Gal(b1-4)GlcNAc(b1-3)Gal(b1-4)GlcNAc(b1-3)Gal(b1-4)GlcNAc
# In short: as §1
# [3] = molecular target: Neu5Ac(a2-3)Gal(b1-4)GlcNAc(b1-3)Gal(b1-4)GlcNAc(b1-3)Gal(b1-4)GlcNAc(b1-2)Man(a1-3)[Neu5Ac(a2-3)Gal(b1-4)GlcNAc(b1-3)Gal(b1-4)GlcNAc(b1-3)Gal(b1-4)GlcNAc(b1-2)Man(a1-6)]GalNAc
# In short: as §1
# [4] = molecular target: Neu5Ac(a2-3)Gal(b1-4)GlcNAc(b1-3)Gal(b1-4)GlcNAc(b1-3)GalNAc
# In short: as §1
# [5] = molecular target: Neu5Ac(a2-3)Gal(b1-4)GlcNAc(b1-3)Gal(b1-4)GlcNAc(b1-3)[Neu5Ac(a2-3)Gal(b1-4)GlcNAc(b1-3)Gal(b1-4)GlcNAc(b1-6)]GalNAc
# In short: as §1
# [6] = molecular target: Neu5Ac(a2-3)Gal(b1-4)GlcNAc(b1-3)Gal(b1-4)GlcNAc(b1-6)[Gal(b1-3)]GalNAc
# In short: as §1
# [7] = molecular target: Neu5Ac(a2-3)Gal(b1-4)GlcNAc(b1-3)Gal(b1-4)[Fuc(a1-3)]GlcNAc
# In short: as §1
# [8] = molecular target: Neu5Ac(a2-3)Gal(b1-4)GlcNAc(b1-3)GalNAc
# In short: as §1
# [9] = molecular target: Neu5Ac(a2-3)Gal(b1-4)GlcNAc(b1-3)[Neu5Ac(a2-3)Gal(b1-4)GlcNAc(b1-6)]GalNAc
# In short: as §1
# [10] = molecular target: Neu5Ac(a2-3)Gal(b1-4)GlcNAc(b1-6)GalNAc
# In short: as §1
# [11] = molecular target: Neu5Ac(a2-3)Gal(b1-4)GlcNAc(b1-6)[Gal(b1-3)]GalNAc
# In short: as §1
# [12] = molecular target: Neu5Ac(a2-3)Gal(b1-4)GlcNAc(b1-6)[Neu5Ac(a2-3)Gal(b1-3)]GalNAc
# In short: as §1
# [13] = molecular target: Neu5Ac(a2-3)Gal(b1-4)GlcNAc6S
# In short: as §1
# [14] = molecular target: Neu5Ac(a2-3)Gal(b1-4)[Fuc(a1-3)]GlcNAc
# In short: as §1
# [15] = molecular target: Neu5Ac(a2-3)Gal(b1-4)[Fuc(a1-3)]GlcNAc(b1-2)Man
# In short: as §1
# [16] = molecular target: Neu5Ac(a2-3)Gal(b1-4)[Fuc(a1-3)]GlcNAc(b1-3)Gal
# In short: as §1
# [17] = molecular target: Neu5Ac(a2-3)Gal(b1-4)[Fuc(a1-3)]GlcNAc(b1-3)Gal(b1-4)GlcNAc
# In short: as §1
# [18] = molecular target: Neu5Ac(a2-3)Gal(b1-4)[Fuc(a1-3)]GlcNAc(b1-3)Gal(b1-4)[Fuc(a1-3)]GlcNAc(b1-3)Gal(b1-4)[Fuc(a1-3)]GlcNAc
# In short: as §1
# [19] = molecular target: Neu5Ac(a2-3)Gal(b1-4)[Fuc(a1-3)]GlcNAc(b1-3)GalNAc
# In short: as §1
# [20] = molecular target: Neu5Ac(a2-3)Gal(b1-4)[Fuc(a1-3)]GlcNAc(b1-6)[Gal(b1-3)]GalNAc
# In short: as §1
# [21] = molecular target: Neu5Ac(a2-3)Gal(b1-4)[Fuc(a1-3)]GlcNAc(b1-6)[Neu5Ac(a2-3)Gal(b1-3)]GalNAc
# In short: as §1
# [22] = molecular target: Neu5Ac(a2-3)Gal(b1-4)[Fuc(a1-3)]GlcNAc6S
# In short: as §1
# [23] = molecular target: Neu5Ac(a2-3)Gal6S(b1-4)GlcNAc
# In short: as §1
# [24] = molecular target: Neu5Ac(a2-3)Gal6S(b1-4)[Fuc(a1-3)]GlcNAc
# In short: as §1
# Neu5Ac(a2-3)GalNAc = molecular target: Neu5Ac(a2-3)GalNAc
# In short: as §1
# [25] = molecular target: Neu5Ac(a2-3)GalNAc(b1-4)GlcNAc
# In short: as §1
# [26] = molecular target: Neu5Ac(a2-3)[GalNAc(b1-4)]Gal(b1-4)Glc
# In short: as §1
# [27] = molecular target: Neu5Ac(a2-3)[GalNAc(b1-4)]Gal(b1-4)GlcNAc
# In short: as §1
# [28] = molecular target: Neu5Ac(a2-3)[GalNAc(b1-4)]Gal(b1-4)GlcNAc(b1-3)GalNAc
# In short: as §1
# [29] = molecular target: Neu5Ac(a2-3)[Neu5Ac(a2-6)]GalNAc
# In short: as §1
# Neu5Ac(a2-6)Gal = molecular target: Neu5Ac(a2-6)Gal
# In short: as §1
# [30] = molecular target: Neu5Ac(a2-6)Gal(b1-3)GlcNAc(b1-3)[Gal(b1-4)GlcNAc(b1-6)]Gal(b1-4)Glc
# In short: as §1
# Neu5Ac(a2-6)Gal(b1-4)Glc = molecular target: Neu5Ac(a2-6)Gal(b1-4)Glc
# In short: as §1
# [31] = molecular target: Neu5Ac(a2-6)Gal(b1-4)GlcNAc
# In short: as §1
# [32] = molecular target: Neu5Ac(a2-6)Gal(b1-4)GlcNAc(b1-2)Man
# In short: as §1
# [33] = molecular target: Neu5Ac(a2-6)Gal(b1-4)GlcNAc(b1-2)Man(a1-3)Man(b1-4)GlcNAc(b1-4)GlcNAc
# In short: as §1
# [34] = molecular target: Neu5Ac(a2-6)Gal(b1-4)GlcNAc(b1-2)Man(a1-3)[Gal(b1-4)GlcNAc(b1-2)Man(a1-6)]Man(b1-4)GlcNAc(b1-4)GlcNAc
# In short: as §1
# [35] = molecular target: Neu5Ac(a2-6)Gal(b1-4)GlcNAc(b1-2)Man(a1-3)[GlcNAc(b1-2)Man(a1-6)]Man(b1-4)GlcNAc(b1-4)GlcNAc
# In short: as §1
binder,measurement,setting,value
B1,glycan array binding signal (z-score),[1],-0.411
same,glycan array binding signal (z-score),[2],-0.309
same,glycan array binding signal (z-score),[3],-0.104
same,glycan array binding signal (z-score),[4],-0.242
same,glycan array binding signal (z-score),[5],-0.229
same,glycan array binding signal (z-score),[6],-0.484
same,glycan array binding signal (z-score),[7],-0.506
same,glycan array binding signal (z-score),[8],0.084
same,glycan array binding signal (z-score),[9],-0.552
same,glycan array binding signal (z-score),[10],2.99
same,glycan array binding signal (z-score),[11],-0.26
same,glycan array binding signal (z-score),[12],-0.38
same,glycan array binding signal (z-score),[13],-0.333
same,glycan array binding signal (z-score),[14],-0.157
same,glycan array binding signal (z-score),[15],-0.179
same,glycan array binding signal (z-score),[16],-0.126
same,glycan array binding signal (z-score),[17],-0.277
same,glycan array binding signal (z-score),[18],-0.298
same,glycan array binding signal (z-score),[19],0.105
same,glycan array binding signal (z-score),[20],-0.34
same,glycan array binding signal (z-score),[21],-0.501
same,glycan array binding signal (z-score),[22],-0.312
same,glycan array binding signal (z-score),[23],-0.428
same,glycan array binding signal (z-score),[24],1.07
same,glycan array binding signal (z-score),Neu5Ac(a2-3)GalNAc,-0.291
same,glycan array binding signal (z-score),[25],-0.133
same,glycan array binding signal (z-score),[26],1.03
same,glycan array binding signal (z-score),[27],0.513
same,glycan array binding signal (z-score),[28],-0.713
same,glycan array binding signal (z-score),[29],-0.293
same,glycan array binding signal (z-score),Neu5Ac(a2-6)Gal,-0.227
same,glycan array binding signal (z-score),[30],-0.45
same,glycan array binding signal (z-score),Neu5Ac(a2-6)Gal(b1-4)Glc,-0.417
same,glycan array binding signal (z-score),[31],-0.381
same,glycan array binding signal (z-score),[32],0.058
same,glycan array binding signal (z-score),[33],-0.306
same,glycan array binding signal (z-score),[34],-0.424
same,glycan array binding signal (z-score),[35],-0.206
